Our source for the activation values is PubChem BioAssay AID1346428 (National Center for Advancing Translational Sciences (NCATS), 2018).

Hit rate of the full screen: of about 48,000 compounds, about 1,200 (2.5%) were called active. Inconclusive results (about 2%) are left out.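 The calls were made as follows: active = activation of at least 60% and not above a set upper limit (about 1 call in 100 departs from these limits); inconclusive = activation of 40% to 60%, or above that upper limit; inactive = activation under 40%.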 This is one part of the list.

Chain of UniProt O75388 (O75388 whole entry, looked up, the tested form may be a part): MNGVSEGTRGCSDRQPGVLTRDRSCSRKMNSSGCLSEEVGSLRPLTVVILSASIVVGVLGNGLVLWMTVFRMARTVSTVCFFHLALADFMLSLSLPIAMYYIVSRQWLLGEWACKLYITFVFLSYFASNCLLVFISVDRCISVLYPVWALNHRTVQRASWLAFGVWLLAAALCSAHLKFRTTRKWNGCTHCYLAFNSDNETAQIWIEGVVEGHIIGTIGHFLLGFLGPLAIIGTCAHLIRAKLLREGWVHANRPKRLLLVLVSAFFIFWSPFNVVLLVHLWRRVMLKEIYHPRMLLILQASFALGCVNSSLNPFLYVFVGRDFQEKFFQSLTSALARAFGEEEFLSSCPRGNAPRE

The assay concerns the target Probable G-protein coupled receptor 32 (Homo sapiens) (UniProt O75388). The experiment in a line: qHTS for Agonists of Human Resolvin D1 Receptor DRV1. Also: 0% is about no effect. The following applies: CHO-K1 GPR32 beta-arrestin PathHunter luminescence, 90 min; at 76.9 µM; stronger effect = higher value; zero percent set by DMSO-only wells. The essentials:
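Agonism was scored by beta-Gal fragment complementation (chemiluminescent read, 1 h detection at ambient temperature) reporting beta-arrestin binding to GPR32 in engineered CHO-K1 cells. Compound treatment lasted 90 min at 37 C, normalized to a DMSO basal control.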
As to `COc1ccc(-c2cn3nc(N4CCCC(C(=O)Nc5cc(C)cc(C)c5)C4)sc3n2)cc1` (configuration not stated), the activation is inactive: -10.1%. In the case of `COc1ccccc1N1CCN(c2ncnc3c2cnn3-c2cccc(Cl)c2)CC1` it was inactive: 0.474%; in that of `CC(C)(C)C1CCc2c(sc(NC(=O)c3ccc(Cl)cc3)c2C(=O)NCc2ccco2)C1` (configuration not stated), inactive: 4.24%.

`CCN(Cc1ccccc1)S(=O)(=O)c1cc(C(=O)Nc2cc(Cl)cc(Cl)c2)ccc1F`: the activation was inactive: -6.58%. For `COc1ccc(-c2[nH]c(-c3cccc(OC)c3)nc2SCC(=O)NC2CCCC2)cc1`, the activation is inactive: -28.9%. `O=S(=O)(NCC(c1cccs1)S(=O)(=O)c1ccccc1)c1ccc(F)c(C(F)(F)F)c1` (configuration not stated): the activation is inactive: -14.7%. The result for `C#C[C@]1(OC(C)=O)CC[C@H]2[C@@H]3CCC4=C[C@@H](OC(C)=O)CC[C@@H]4[C@H]3CC[C@@]21C` reads inactive: 16.7%. In the case of `CCN(CC)S(=O)(=O)c1ccc(C(=O)N2CC(=O)Nc3ccc(F)cc3C2c2ccccc2)cc1` (configuration not stated) it was inactive: -18.4%; in that of `O=C(C1CCN(S(=O)(=O)c2ccc(Br)s2)CC1)N1CCN(c2ccccc2)CC1`, inactive: 34.7%. On to `CC(C)(C)OC(=O)N1CCC(c2c(C(=O)NCCc3ccccc3)cnn2-c2ccc(F)cc2)CC1`, for which the activation is inactive: -24.5%. The result for `COc1cc(NC(=O)c2c(C)oc3c2C2=NCCN2C=N3)cc(OC)c1OC` reads inactive: -37.9%. In the case of `CC(=O)N1c2ccc(S(=O)(=O)NCC3CCC(C(=O)Nc4cc(C)ccc4C)CC3)cc2CC1C` (configuration not stated) it was inactive: 27.7%; in that of `COc1ccc(CCN2C(=O)NC(NS(=O)(=O)c3ccc(NC(C)=O)cc3)(C(F)(F)F)C2=O)cc1OC` (configuration not stated), inactive: 0.3%; in that of `COc1ccc(OCC(=O)NCc2ccc3c(c2)CCN3C(=O)c2ccc(F)cc2)cc1`, inactive: -37.4%. As for `CCc1ccc(-c2nn(CC(=O)NCc3ccccc3)c3c2cnc2ccc(F)cc23)cc1`, the activation was inactive: 6.56%. With `O=C(NCc1ccc(F)cc1)c1cc(-c2ccc(Cl)cc2)n[nH]1`, the activation is inactive: 16.3%. Consider `O=C(Nc1cccnc1)c1cc(-c2cccc(Cl)c2)on1`, for which the activation is inactive: 3.84%. In the case of `O=C(O)c1cccc(Nc2ncnc3scc(-c4ccccc4)c23)c1` it was inactive: 19.3%; in that of `CCc1ccc(S(=O)(=O)c2nnn3c2nc(Nc2ccc(F)cc2)c2cc(Cl)ccc23)cc1`, inactive: -10.4%. In the case of `CCC(C)NC(=O)CCSc1nc(-c2ccc(OC)cc2)cc(C(F)(F)F)n1` (configuration not stated) it was inactive: -27%; in that of `COc1ccc(NC(=O)c2cc(CN3CCCC3)on2)cc1Cl`, inactive: 10.1%. In the case of `Cc1ccc(C(=O)Nc2nnc(S(=O)(=O)N3CCc4ccccc43)s2)cc1` it was inactive: 6%. In the case of `Cc1ccccc1C(=O)Oc1c(Sc2ccccc2)c(C)nn1C(C)(C)C`, the activation was inactive: -13.8%. As to `COc1ccc(CC(=O)NCc2ccc3c(c2)CCN3C(=O)c2ccc(Cl)cc2)cc1`, the activation is inactive: -13.5%. In the case of `CCc1ccc2oc(-c3cc(NC(=O)c4cccnc4)cc(C)c3O)nc2c1` it was inactive: 15.5%; in that of `CCOc1ccc(NC(=O)c2cnc(Nc3ccccc3OC)c3ccccc23)cc1`, inactive: -4.3%. Regarding `COc1ccc(CCNC(=O)Cn2ncc3c(=O)oc4ccccc4c32)c(OC)c1`, the activation was inactive: -2.24%. The result for `CCOc1ccc(NC(=O)c2oc3ccccc3c2NC(=O)c2cc(C)cc(C)c2)cc1` reads inactive: 5.98%; that for `CCC(=O)N1CCc2cc(Br)cc(S(=O)(=O)N3CCCC(C(=O)Nc4cccc(F)c4)C3)c21` (configuration not stated), inactive: 17.4%. In the case of `CCOC(=O)CSc1nc2sc3c(c2c(=O)n1-c1ccccc1)CCC(C(C)(C)C)C3` (configuration not stated) it was inactive: 34.2%; in that of `Cc1cccc(Cc2c(C)nc3nc(SCC(=O)NCc4ccccc4)nn3c2C)c1`, inactive: 36.2%.

Regarding `CC(C)Oc1ccc(CNC(=O)c2cccc(NC(=O)N3CCSc4ncccc43)c2)cc1`, the activation was inactive: 15.2%. For the compound `CCOc1ccc(CCNC(=O)CCSCc2ccc(Cl)cc2)cc1OCC`, the activation is inactive: -20.4%. Take `COc1cccc(CNC(=O)CN(c2ccc(C(C)C)cc2)S(=O)(=O)c2c(C)noc2C)c1`: the activation was inactive: 21.5%. In the case of `O=C(Nc1cccc(Br)c1)N1CCC(CN2CCCCCC2)CC1` it was inactive: -14.7%.

Consider `Cn1c(=O)oc2cc(S(=O)(=O)N3CCC(C(=O)Nc4ccc(F)c(Cl)c4)CC3)ccc21`, for which the activation was inactive: 33.8%. In the case of `Cc1cc(C)cc(Oc2c(C(F)(F)F)oc3cc(OCC(=O)NC4CCCCC4)ccc3c2=O)c1` it was inactive: -1.07%. For the compound `CCOC(=O)c1cc(-c2ccccc2)n(-c2cccc(C(=O)Nc3cc(OC)cc(OC)c3)c2)c1C`, the activation was inactive: -22.2%. Turning to `CCOC(=O)c1sc(NC(=O)c2cc3nc(-c4ccccc4)cc(C(F)(F)F)n3n2)c(C(=O)OCC)c1C`, the activation is inactive: -22.4%. The result for `COc1cc(-c2nc(Cn3nnc(C(=O)Nc4ccc(C)cc4C)c3C)c(C)o2)cc(OC)c1OC` reads inactive: -9.47%; that for `Cc1oc(-c2ccccc2F)nc1CS(=O)(=O)CC(=O)NCCc1ccc(Cl)cc1`, inactive: 44.1%. With `COc1cccc2cc(-c3nnc(Nc4c(F)cccc4F)s3)c(=O)oc12`, the activation was inactive: 5.06%. The result for `CSc1ncc(C(=O)N2CCN(c3cc(Cl)ccc3C)CC2)c(C)n1` reads inactive: 6.07%; that for `CCCN(C(=O)CCc1nc(-c2ccc(OC)cc2)no1)c1ccccc1F`, inactive: 13.2%. Regarding `COc1ccc(CC(=O)NCCc2csc3nc(-c4ccccc4F)nn23)cc1`, the activation was inactive: 42%. As for `Cc1ccc(NC(=O)CN(C)S(=O)(=O)c2ccc3[nH]c4c(c3c2)CCCC4)c(Cl)c1`, the activation is inactive: 37.1%. In the case of `COc1ccc(N2CCN(c3oc(-c4ccc(COc5cccc(C)c5)o4)nc3C#N)CC2)cc1`, the activation is inactive: -15.8%. The result for `O=C(CSc1nc2c([nH]c3ccccc32)c(=O)n1-c1ccccc1)Nc1ccc2c(c1)OCCO2` reads inactive: -37.1%; that for `COc1ccccc1C(=O)Nc1ccc(OCc2cc(=O)n3ccsc3n2)cc1`, inactive: -14.1%; that for `Cc1cccc(NC(=O)c2sc3nc(N4CCOCC4)c4c(c3c2N)CC(C)(C)OC4)c1`, inactive: -13.9%. As for `COc1ccc(NC(=O)Cn2ncc3c2-c2ccccc2OC3)cc1Cl`, the activation is inactive: 35.3%.

As to `CCOc1ccc(CCNC(=O)c2ccc(-n3c(C)cc4c3CCC(C)C4)cc2)cc1OCC` (configuration not stated), the activation is inactive: -11.3%.

In the case of `CC1=C(C(=O)Nc2ccc(C)cc2Cl)C2(CCCCCC2)OC1=O`, the activation was inactive: -14.9%. In the case of `CC(=O)N1c2ccc(S(=O)(=O)NCCC(=O)Nc3ccc(Br)c(C)c3)cc2CC1C` (configuration not stated) it was active: 69.2%; in that of `CCC(=O)c1cc2c(cc1NC(=O)c1ccccc1F)OCCO2`, inactive: 0.206%; in that of `CCN(CC)c1sc(S(=O)(=O)c2ccccc2)nc1S(=O)(=O)c1ccc(C)cc1`, inactive: -27.4%. For `CCN(CCCNC(=O)c1cc2c(Cl)nc3ccccc3c2s1)Cc1ccccc1`, the activation is active: 95.3%. On to `Cc1ccc(C)c2sc(N3CCN(C(=O)C(C)(C)C)CC3)nc12`, for which the activation was inactive: 29%.

As to `COc1ccc(N2CC(NC(=O)c3ccc(S(=O)(=O)N4CCOCC4)cc3)CC2=O)cc1OC` (configuration not stated), the activation was inactive: -2.89%.

Turning to `CCN(CC)CCNC(=O)Nc1ccc2c(c1)N(Cc1ccccc1)C(=O)c1ccccc1S2`, the activation was inactive: -25.3%. For `CC(C)(C)c1ccc(-c2nc(SCC(=O)Nc3ccc(Cl)cc3)[nH]c(=O)c2C#N)cc1`, the activation was inactive: 2.51%. Take `CC(=O)NCCn1c(SCC(=O)Nc2ccc(C)cc2)nc2ccccc2c1=O`: the activation was inactive: 13.9%.

Consider `CCCCOc1cccc(C(=O)N(Cc2cccs2)c2ccc(OC)cc2)c1`, for which the activation is inactive: -30.9%.

Take `CCCCNC(=O)C1CCC(CNS(=O)(=O)c2ccc(Cl)cc2)CC1` (configuration not stated): the activation was inactive: -18.4%.

As for `CCc1ccc(S(=O)(=O)N(C(=O)Oc2ccccc2)c2ccc3oc(C)c(C(=O)OC)c3c2)cc1`, the activation was inactive: -13.1%.

In the case of `COc1cccc(-n2c(-c3cccc(F)c3)nc3c(cnn3-c3ccc(C)cc3)c2=O)c1`, the activation was inactive: -3.94%. For the compound `Cc1c(-c2ccc(Cl)cc2)c(=O)oc2ccc(OC(=O)N3CCOCC3)cc12`, the activation was inactive: 4.65%. The result for `CCN(Cc1ccccc1)c1ncnc2c1nnn2C` reads inactive: -13.1%. In the case of `Cc1ccccc1CN1C(=O)c2ccccc2Sc2ccc(C(=O)NC3CCCC3)cc21` it was inactive: -12.6%.

Regarding `O=S(=O)(NCc1ccc(Cl)cc1)c1ccc(-c2cnc(C3CC3)o2)cc1`, the activation was inactive: 9.71%. `COc1ccc(OC)c(/C=C/C(=O)Nc2ccc(C(=O)OCCC(C)C)cc2)c1`: the activation was inactive: -10.2%.

On to `Cc1ccc(Cl)cc1-n1ncc2c(N3CCCCCC3)ncnc21`, for which the activation was inactive: 21.5%.

As to `CCCCN(CCCC)C(=O)C1CCN(S(=O)(=O)c2cccc3nsnc23)CC1`, the activation is inactive: 0.802%. As to `COc1ccccc1CNC(=O)CC(c1ccc(OC)c(OC)c1)N1Cc2ccccc2C1=O` (configuration not stated), the activation is inactive: -0.0914%.

`CCc1cnc2c(c1SCC(=O)c1ccc(OC)cc1)c(=O)n(C)c(=O)n2C`: the activation is inactive: -5.26%. In the case of `CCCC(=O)Nc1cc2nn(-c3ccc(OC)cc3)nc2cc1C`, the activation is inactive: 12.9%. Consider `CCOc1ccc(NC(=O)NCCN2CCN(c3cc(Cl)ccc3C)CC2)cc1`, for which the activation was active: 73%. With `O=C(NCCc1ccccc1)c1c[nH]c2ccc(S(=O)(=O)Nc3ccc(F)cc3F)cc2c1=O`, the activation was active: 100%. For the compound `CCOC(=O)c1c(Nc2ccc(C)c(C)c2)nnc(-c2ccccc2)c1-c1ccccc1`, the activation is inactive: 6.53%. The result for `Cc1ccc(C)c(OCC(=O)Nc2sc3c(c2C#N)CCCC3)c1C` reads inactive: 6.99%. The result for `CCC1CCCCN1CCCNC(=O)c1ccc2c(c1)c(C)c(C)n2CC` (configuration not stated) reads inactive: -9.91%; that for `Cc1cc(C)c(NC(=O)Cn2c(=O)n(CCC(C)C)c(=O)c3cccnc32)c(C)c1`, inactive: 12.2%.
